From PubChem BioAssay AID1745853 (National Center for Advancing Translational Sciences (NCATS), 2022)
The list shows a part of the results. The main result of the screen is listed elsewhere. These columns were measured beside it and carry no call.

Legend:
Test in all cases: Primary Screen for Target Class Profiling of Small Molecule Inhibitors of Methyltransferases
[1] = biological target: Glycine N-methyltransferase (Homo sapiens) (UniProt Q14749); conditions: purified enzyme, MTase-Glo SAH luminescence; measured here: GNMT inhibition; at 40 µM; stronger effect = lower value
Outline: (§1)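 Each enzyme was assayed with SAM and its substrate. SAH formation detected by MTase-Glo luminescence; single-point 40 uM screen[…].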

[2] = biological target: Guanidinoacetate N-methyltransferase (Homo sapiens) (UniProt Q14353); conditions: purified enzyme, MTase-Glo SAH luminescence; measured here: GAMT inhibition; at 40 µM; stronger effect = lower value
Outline: as §1

[3] = biological target: Histamine N-methyltransferase (Homo sapiens) (UniProt P50135); conditions: purified enzyme, MTase-Glo SAH luminescence; measured here: HNMT inhibition; at 40 µM; stronger effect = lower value
Outline: as §1

[4] = biological target: Nicotinamide N-methyltransferase (Homo sapiens) (UniProt P40261); conditions: purified enzyme, MTase-Glo SAH luminescence; measured here: NNMT inhibition; at 40 µM; stronger effect = lower value
Outline: as §1

[5] = biological target: Phenylethanolamine N-methyltransferase (Homo sapiens) (UniProt P11086); conditions: purified enzyme, MTase-Glo SAH luminescence; measured here: PNMT inhibition; at 40 µM; stronger effect = lower value
Outline: as §1
On the % scale 0 is the no-effect control and ±100 the full control effect.

Structure (SMILES) | activity change, negative = inhibition [1] [%] | activity change, negative = inhibition [2] [%] | activity change, negative = inhibition [3] [%] | activity change, negative = inhibition [4] [%] | activity change, negative = inhibition [5] [%]
CC(C)CCN1CC[C@@H]2OCC(=O)N(Cc3ccccc3)[C@H]2CC1 | -6.97 | -3.11 | -7.62 | -12.4 | -6.07
CC(C)CCNC(=O)C1(C)Cn2nc(C(=O)N3CCCC3)cc2C(=O)N1C (configuration not stated) | 5.95 | 0 | 4.75 | 5.86 | 4.16
Cc1cc(CS(=O)(=O)c2ccccc2)cc(OCc2ccc(CN3CCCC3CO)cc2)c1 (configuration not stated) | 2.11 | 8.15 | -28.7 | -12.1 | -13.9
Cc1cc(-c2nc(CN3CCC(C(=O)NCCCN4C[C@H](C)C[C@H](C)C4)CC3)co2)ccc1F |  | -14.9 |  | -20.9 | -2.93
CCCSCCCN1C(=O)c2cc3sccc3n2CC1(C)C(=O)NC1CCC(C)CC1 (configuration not stated) | -2.44 | 0 | 0.248 | -3.5 | -3.05
Fc1cccc(-c2nnn3c2nc(N2CCOCC2)c2cc(Cl)ccc23)c1 | -5.13 | -5.2 | -3.1 | -4.98 | -6.98
CCOCCCNC(=O)N1Cc2c(sc3c2CCCC3)-n2cccc2C1c1ccc(OC)cc1 (configuration not stated) | -4.47 | 0.682 | 2.35 | -6.92 | 1.56
O=C(Nc1ccc(F)c(Cl)c1)C1=NO[C@@H]2CN(CCc3ccccc3)C[C@H]12 | -1.73 | -0.325 | -1.88 | -12.8 | -20.1
c1ccc2c(c1)CCN2c1nccnc1OC1CCNC1 (configuration not stated) | -4.04 | -1.2 | -16.6 | -9.55 | -3.78
COc1cc(/C=C/C(=O)O[C@H]2C[C@@H]3C(C(=O)O)=CO[C@@H](O[C@@H]4O[C@H](CO)[C@@H](O)[C@H](O)[C@H]4O)[C@@H]3[C@H]2C)ccc1O | 4.49 | 3.42 | -1.62 | -7.85 | 4.68
Cc1nc(Nc2n[nH]c3c2CN(C(=O)NC(CN(C)C)c2ccccc2)C3(C)C)c2sccc2n1 (configuration not stated) | -3.6 | -2.46 | -51.9 | -33.5 | -0.36
CC1CCCCN1CCN1C(=O)c2ccc(-c3ccco3)n2CC1(C)C(=O)NC1CCCCC1 (configuration not stated) | 4.28 | 2.4 | 3.3 | 7.13 | -14.1
CC(C)OC(=O)N1CCC(Oc2ncnc3c2cnn3-c2ccc(S(C)(=O)=O)cc2F)CC1 | -2.91 | 0.996 | 8.85 | -16.7 | -6
O=C(N[C@H]1C[C@H]2C(=O)NC[C@@H](CCC(=O)N3CCN(c4ccccn4)CC3)N2C1)c1cccs1 | -6.67 | 1.51 | 0.402 | -7.14 | -2.26
Nc1ccn([C@H]2CC[C@@H](CO)O2)c(=O)n1 | -0.409 | 11.7 | 3.84 | -4.31 | 3.97
CC1=CC2(O)/C=C/C(C)(O)CC(O)/C=C/C(=O)OC23C(=O)NC(CC(C)C)C3C1C (configuration not stated) | 3.42 | 1.26 | 7.26 | -8.49 | 1.37
CC(NC(=O)CCn1ccc2cc(S(=O)(=O)N3CCCC3)ccc21)c1ccccc1 (configuration not stated) | 5.99 | 0 | 7.11 | 7.25 | 4.97
COCCN1Cc2[nH]nc(-c3ccsc3)c2CC1=O | -14.7 | -8.88 | -5.78 | -20.9 | -10
COc1cccc(CNC(=O)N2Cc3c(sc4c3CCCC4)-n3cccc3C2c2cccc(OC)c2)c1 (configuration not stated) | -3.32 | 0 | 3.27 | -13.5 | 2.42
CC(=O)Nc1ccc(C2(C(=O)NCc3cccs3)CCCCC2)cc1 | -0.564 | -1.22 | -0.755 | -3.49 | 7.88
Cc1occc(=O)c1O[C@@H]1O[C@H](CO)[C@@H](O)[C@H](O)[C@H]1O | 7.35 | 11.4 | 10.3 | -0.192 | 9.43
COCCN(CCOC)CC[C@@H]1CC[C@H](O)[C@@H](C(=O)NC2CCCCC2)O1 | -4.39 | -10 | -2.71 | -2.4 | -6.62
N#Cc1cccnc1-c1cccc(C(=O)NCCNC(=O)c2ccccc2)c1 | -6.8 | -11.3 | -2.42 | -6.28 | -8.33
Clc1ccc2ncc(-c3cccc(NC4CCNCC4)n3)n2c1 |  | -3.71 |  | -21.2 | -5.99
CC(=O)N1CC(CO)C2(CCN(C(=O)c3nccc4ccccc34)CC2)C1 (configuration not stated) | 1.62 | -1.95 | 1.46 | 1.98 | 1.29
COc1ccc(CCC(=O)O)c(O[C@@H]2O[C@H](CO)[C@@H](O)[C@H](O)[C@H]2O)c1 | 1.64 | 6.06 | 6.22 | -8.7 | 0.264
Cc1ccc(C)c(C(=O)Cn2nc3n(CC(C)C)c(=O)c4ccc(C(=O)NC(C)C)cc4n3c2=O)c1 | 6.11 | 5.7 | 3.1 | 6.21 | 3.94
Cc1cc(C)c(NC(=O)CN(C)S(=O)(=O)c2ccc3[nH]c4c(c3c2)CCCC4)c(C)c1 | 0.377 | 0 | 0.565 | 1.13 | 1.66

Structure (SMILES) | activity change, negative = inhibition [1] [%] | activity change, negative = inhibition [2] [%] | activity change, negative = inhibition [3] [%] | activity change, negative = inhibition [4] [%] | activity change, negative = inhibition [5] [%]
CC(=O)Nc1c2n(c3ccc(F)cc13)CC(C)(C(=O)NC1CCCC1)N(Cc1ccccc1F)C2=O (configuration not stated) | -3.4 | 0.921 | -5.34 | -3.76 | -7.53
CC(C)OCCCNC(=O)c1ccc2c(=O)nc3c(-c4cccc(F)c4)n[nH]n3c2c1 | -0.396 | 4.16 | 7.25 | 3.89 | 1.15
Cc1cccc(N2CCN(C(=O)c3cc(S(=O)(=O)N(C)C)ccc3N3CCCC3)CC2)c1C | -2.87 | -4.78 | 11.1 | -15.6 | -0.68
Cc1cc(C)n(CCCN(C)C(=O)C2C3C(=O)N(CCC(C)C)C[C@@]34C=C[C@@H]2O4)n1 (some centres not stated) | 0.957 | 0.056 | 2.67 | 2.7 | 5.72
CN1C(=O)c2cc(C(=O)N3CCN(Cc4ccccc4)CC3)nn2CC1(C)C(=O)NCc1ccc(F)cc1 (configuration not stated) | 2.81 | 0 | -4.7 | 2.47 | 3.55
COCC(=O)Nc1ccc(-c2noc([C@@H]3CCCN3Cc3ncc[nH]3)n2)cn1 | -9.07 | -6.53 | -5.89 | -5.98 | -7.07
Fc1ccc(CN2CCn3c(nnc3-c3ccncc3)C2)cc1 | -5.86 | -2.65 | -2.47 | -6.71 | -2.66
CN(C)C[C@@H]1CN(c2ccncn2)C[C@H]1NC(=O)c1nccc2ccccc12 | -4.48 | -1.52 | -0.407 | -5.3 | -2.39
COc1ccc(OC)c(CNC(=O)c2cc3n(n2)CC(C)(C(=O)NC2CCCC2)N(C)C3=O)c1 (configuration not stated) | 1.95 | 2.99 | 8.62 | 8.39 | 3.09
N#Cc1ccc(O[C@@H]2CCOC[C@H]2NC(=O)CN2CCOC2=O)cc1 | -0.658 | -5.6 | -0.385 | -5 | -0.595
CC1OC(O[C@@H]2[C@@H](O)[C@H](OC(=O)[C@]34CCC(C)(C)C[C@H]3C3=CCC5[C@@]6(C)CC[C@H](O[C@@H]7O[C@H](C(=O)O)[C@@H](O)[C@H](O[C@@H]8OC[C@@H](O)[C@H](O)[C@H]8O)[C@H]7O[C@@H]7O[C@H](CO)[C@H](O)[C@H](O)[C@H]7O)[C@@](C)(C=O)C6CC[C@@]5(C)[C@]3(C)C[C@H]4O)O[C@H](C)[C@@H]2OC2OC(C)C(OC3OCC(O)C(O)C3O)C(O)C2O)C(O)C(O)C1O (some centres not stated) | -0.933 | -0.016 | 3.38 | -8.43 | 2.97
CCOC(=O)CNC(=O)N1Cc2c(sc3c2CCCC3)-n2cccc2C1c1ccc(SC)cc1 (configuration not stated) | 0.155 | 0.906 | 7.06 | -1.61 | 6.6
Cc1cc2c(cc3n2CC(C)(C(=O)NC2CCCCCCC2)N(CCCN2CCOCC2)C3=O)o1 (configuration not stated) | 1.31 | 1.61 | 5.38 | -4.33 | 2.55
C[C@@H](O)[C@H]1C(=O)N2C(C(=O)O)=C(S[C@@H]3CN[C@H](CNS(N)(=O)=O)C3)[C@H](C)[C@H]12 |  | -10.3 |  | -20.8 | -2.62
COc1cccc(-n2c(=O)[nH]c3cc(Cl)n(-c4ccc(-c5cccc(OC)c5O)cc4)c3c2=O)c1 |  | -9.02 |  | -35.8 | -12.1
CC12CCC(OC3OC(CO)C(O)C(OC4OC(CO)C(O)C(O)C4O)C3O)CC1=CCC1C2CCC2(C)/C(=C3/COC(=O)C3)CCC12O (configuration not stated) | 2.56 | 6.46 | 3.12 | -5.62 | 4
Cc1cc(C)cc(NC(=O)Cn2c(=O)oc3cc(S(=O)(=O)N4CCCC4)ccc32)c1 | -11.5 | -1.18 | -5 | -3.41 | -23.7
CCCN1C(=O)c2cc3sc(CC)cc3n2CC1(C)C(=O)NC1CCCCC1 (configuration not stated) | -5.7 | 0.268 | -0.459 | 3.1 | -2.93
Cc1ccc(Cn2nc3n(CCC(C)C)c(=O)c4ccc(C(=O)NC(C)C)cc4n3c2=O)cc1 | -1.12 | 0.223 | -2.9 | -2.18 | -1.24
Cc1csc2c(N[C@@H](C)CN3CCN(S(=O)(=O)c4ccc(Cl)c(Cl)c4)CC3)ncnc12 | -8.98 | 1.3 | 9.88 | -28.5 | -4.37
CC(C)CNC(=O)c1ccc2c(=O)n(CC(C)C)c3nn(CC(N)=O)c(=O)n3c2c1 | 6.53 | 5.37 | 11.6 | 2.3 | 4.83
CCC(C)NC(=O)c1ccc2c(=O)n(Cc3ccccc3)c3nn(CC(=O)NC(C)(C)C)c(=O)n3c2c1 (configuration not stated) | -0.053 | 4.05 | 3.73 | 1.76 | -4.67
Cc1ccc([S+](=O)([O-])N2CCCCC23Cc2ccccc2NC3=O)cc1 (configuration not stated) | -7.19 | -7.18 | -3.01 | -12.1 | -7.7
CC1CCN(C(=O)c2cc3n(n2)CC(C)(C(=O)NCc2ccccc2)N(C)C3=O)CC1 (configuration not stated) | 6.58 | 0.231 | 8.66 | 1.26 | 5.25
CC1(CO)CC(O)[C@]2(C(=O)O)CCC34CC3(C=CC3[C@]5(C)C(CC[C@]34C)C(C)(CO)[C@@H](O)[C@H](O)[C@@H]5O)C2C1 (some centres not stated) | 3.54 | 4.33 | 7 | -10.1 | 6.14
CC1(C(=O)NCc2ccc(F)cc2)Cn2c(nc3ccccc32)C(=O)N1Cc1ccc2c(c1)OCO2 (configuration not stated) | 3.28 | 0.714 | 9.55 | 11.5 | 3.86
Cn1c(=O)n(C)c2cc(S(=O)(=O)Nc3ccc(-c4nnc(-c5ccccc5)o4)c(Cl)c3)ccc21 | -32.3 | 0 | -1.67 | -12.3 | -2.61
